{"source": "paper PMC5741900", "about": "“CENP-B protects centromere chromatin integrity by facilitating histone deposition via the H3.3-specific chaperone Daxx” (Epigenetics & Chromatin, 2017)", "binders": {"B1": {"name": "Daxx, endogenous (natural protein, human (endogenous in HEp2))", "chain": "MATANSIIVLDDDDEDEAAAQPGPSHPLPNAASPGAEAPSSSEPHGARGSSSSGGKKCYKLENEKLFEEFLELCKMQTADHPEVVPFLYNRQQRAHSLFLASAEFCNILSRVLSRARSRPAKLYVYINELCTVLKAHSAKKKLNLAPAATTSNEPSGNNPPTHLSLDPTNAENTASQ[about 200 residues left out]ERKKRRARLQGTSSHSADTPEASLDSGEGPSGMASQGCPSASRAETDDEDDEESDEEEEEEEEEEEEEATDSEEEEDLEQMQEGQEDDEEEDEEEEAAAGKDGDKSPMSSLQISNEKNLEPGKQISRSSGEQQNKGRIVSPSLLSEEPLAPSSIDAESNGEQPEELTLEEESPVSQLFELEIEALPLDTPSSVETDISSSRKQSEEPFTTVLENGAGMVSSTSFNGGVSPHNWGDSGPPCKKSRKEKKQTGSGPLGNSYVERQRSVHEKNGKKICTLPSPPSPLASLAPVADSSTRVDSPSHGLVTSSLCIPSPARLSQTPHSQPPRPGTCKTSVATQCDPEEIIVLSDSD", "notes": "Daxx, H3.3-specific histone chaperone, detected with Daxx antibodies; also called endogenous Daxx; source: endogenous, HEp2 chromatin fraction of lysate"}}, "target": "T1, FLAG-HA-CENP-B (UniProt P07199 1-599)", "T1 construct": "CENP-B (centromere protein B); also called pOZ-CENP-B; source: HEp2 cells stably expressing (pOZ expression vector), chromatin fraction of lysate", "T1 sequence (looked up)": "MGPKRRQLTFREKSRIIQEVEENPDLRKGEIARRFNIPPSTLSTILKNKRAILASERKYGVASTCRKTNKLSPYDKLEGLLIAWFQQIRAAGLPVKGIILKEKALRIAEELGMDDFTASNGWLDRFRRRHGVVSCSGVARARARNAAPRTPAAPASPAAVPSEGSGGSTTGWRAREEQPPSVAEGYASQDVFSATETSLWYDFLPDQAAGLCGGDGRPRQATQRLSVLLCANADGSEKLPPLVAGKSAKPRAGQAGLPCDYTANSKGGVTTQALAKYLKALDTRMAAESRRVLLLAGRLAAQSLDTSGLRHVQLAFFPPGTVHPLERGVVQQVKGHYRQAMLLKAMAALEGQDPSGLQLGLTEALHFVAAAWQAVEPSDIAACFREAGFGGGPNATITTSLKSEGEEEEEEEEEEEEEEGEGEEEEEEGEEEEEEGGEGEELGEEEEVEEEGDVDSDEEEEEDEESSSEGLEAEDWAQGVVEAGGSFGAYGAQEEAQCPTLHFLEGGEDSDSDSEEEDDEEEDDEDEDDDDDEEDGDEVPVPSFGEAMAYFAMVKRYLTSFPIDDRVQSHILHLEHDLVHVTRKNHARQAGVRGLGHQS", "test": "co-IP; anti-FLAG-M2 magnetic beads on the chromatin fraction of HEp2 cells stably expressing FLAG-HA-CENP-B; blot with Daxx and HA antibodies; also after scrambled, SUMO-1 or SUMO-2 siRNA and MG132 (10 µM, 4 h), densitometry relative to control siRNA", "conditions": "partners not purified"}
{"binder": "B1", "values": [{"measurement": "Daxx co-IP with CENP-B after SUMO-1 depletion, relative to control siRNA", "value": "0.7 relative to control siRNA"}, {"measurement": "Daxx co-IP with CENP-B after SUMO-2 depletion, relative to control siRNA", "value": "0.2 relative to control siRNA"}]}
